Test results taken from PubChem BioAssay AID463173 (ICCB-Longwood Screening Facility, Harvard Medical School, 2010).
Among all 52,000 compounds or so, about 1,700 (3.3%) were called active. No stated cut-off is given here; in the data, active means survival mostly below about 52% (no sharp cut-off); inactive means mostly above about 56%. This is one part of the list.

test system: Wild type; assay: S. aureus survival, RN4220 and DeltatarO strains – OD600, teichoic acid synthesis inhibitors, primary screen (AID 463173); settings: S. aureus RN4220 wild type/DeltatarO growth, OD600, 18 h, hits give low values, screened at 18.75 µg/mL (by protocol)

| Structure (SMILES) | survival |
| --- | --- |
| N#Cc1cc2nc3c(nc2cc1C#N)-c1cccc2cccc-3c12 | inactive: 103% |
| CCOC(=O)c1ccc(NC(=O)CN(c2ccc(C)cc2)S(=O)(=O)c2ccc(OC)cc2)cc1 | inactive: 139% |
| CCC(=O)Nc1nnc(S(=O)(=O)N(C)Cc2ccc(Cl)cc2)s1 | inactive: 75% |
| O=S1(=O)c2ccccc2N(Cc2ccc(Cl)cc2F)c2ccccc21 | inactive: 91% |
| CN(C)S(=O)(=O)c1ccc2c(c1)c(=O)c(C(=O)N1CCN(c3cccc(Cl)c3)CC1)cn2C | inactive: 93% |
| COc1ccc(OC)c(NC(=O)CSC2=Nc3ccccc3C3=NC(CCC(=O)NCc4ccco4)C(=O)N23)c1 (stereo not drawn) | inactive: 70% |
| CCOc1ccccc1NC(=O)CSC1=Nc2ccccc2C2=NC(CC(=O)NC3CCCCC3)C(=O)N12 (stereo not drawn) | inactive: 81% |
| COC(=O)CN(Cc1ccccc1)S(=O)(=O)c1ccc2c(c1)OCCO2 | inactive: 101% |
| CCOc1ccc(CN2C(=O)c3ccccc3Sc3ccc(C(=O)N4CCN(C)CC4)cc32)cc1 | inactive: 76% |
| CCOc1ccc(-c2nc3c(c(SCC(=O)N4CCCCC4)n2)Cc2cc(C)ccc2O3)cc1 | inactive: 78% |
| COc1ccc(N2CCN(CCCNC(=O)Nc3ccccc3Cl)CC2)cc1 | inactive: 72% |
| COc1ccc(CCNC(=O)CN(c2ccc(C)cc2)S(=O)(=O)c2ccc(OC)cc2)cc1 | inactive: 71% |
| Cc1cc(NC(=O)c2cccnc2)cc(-c2nc3cc(Cl)ccc3o2)c1O | inactive: 157% |
| CCC(CC)C(=O)Nc1c(C(=O)N2CCN(c3ccccc3F)CC2)oc2ccccc12 | inactive: 113% |
| CCC(Sc1nc2cc(OC)c(OC)cc2c(=O)n1Cc1ccc(Cl)cc1)C(=O)NCCOC (stereo not drawn) | inactive: 81% |
| Brc1ccc(-c2ccc(CNCCSc3nnnn3-c3ccccc3)o2)cc1 | inactive: 53% |
| CCn1nnnc1SCC(N)=O | inactive: 101% |
| O=C(NC1CC(=O)N(c2ccccc2)C1)c1ccc(S(=O)(=O)N2CCOCC2)cc1 (stereo not drawn) | active: 14% |
| Cc1cc(C)cc(Oc2c(C(F)(F)F)oc3c(CN4CCCC(C)C4)c(O)ccc3c2=O)c1 (stereo not drawn) | inactive: 71% |
| COc1ccccc1N1CCN(c2ccc3cc(S(=O)(=O)N4CCCCC4)ccc3n2)CC1 | inactive: 60% |
| CCOC(=O)CC(NC(=O)c1cc2cc(Cl)ccc2oc1=O)c1ccc(C)cc1 (stereo not drawn) | inactive: 121% |
| c1ccc(-c2cn(-c3ccccc3)c3ncnc(N4CCN(c5ccccc5)CC4)c23)cc1 | inactive: 73% |

| Structure (SMILES) | survival |
| --- | --- |
| CC(N=C1NC(C)(C)Cc2ccccc21)C(=O)O (stereo not drawn) | inactive: 94% |
| CC(C)OC(=O)c1cc2c(ccn2C)n1CC(=O)N(Cc1ccccc1)c1ccccc1 | inactive: 140% |
| COc1ccc(OC)c(NC(=O)CSc2n[nH]c(-c3ccccc3Cl)n2)c1 | inactive: 80% |
| CC1CCN(C(=O)CSc2c3c(nc4cc(Cl)ccc24)CCCC3)CC1 | active: 10% |
| Cc1ccc(-c2nnc(SCCOc3ccccc3)o2)cc1 | inactive: 110% |
| COc1ccc(Br)c2c1-c1nc(NC(=O)c3cccc(C)c3)sc1C2 | inactive: 64% |
| CC(OC(=O)c1nsc(Cl)c1Cl)C(=O)NCc1cccs1 (stereo not drawn) | inactive: 111% |
| CCOc1ccc(-n2nc(CO)c(C(=O)NCc3ccc(Cl)cc3)n2)cc1 | inactive: 87% |
| CC(=O)c1ccc(NC(=O)CSc2cn(CC(=O)N3CCCCC3)c3ccccc23)cc1 | inactive: 88% |
| CCOc1ccc(-c2cn(-c3ccc(OC)cc3)c(SCC(=O)Nc3ccccc3Cl)n2)cc1 | inactive: 78% |
| COc1ccc(F)cc1S(=O)(=O)NCCc1csc(-c2ccc(Cl)cc2)n1 | inactive: 82% |
| CCc1ccc(NC(=O)C2CCN(c3nnc(-n4c(C)ccc4C)s3)CC2)cc1 | inactive: 82% |
| CCC(=O)Nc1sc2c(c1C(=O)Nc1ccc(OC)cc1)CCC(C(C)(C)C)C2 (stereo not drawn) | active: 2% |
| CC(C)(CN)C(O)C(=O)O (stereo not drawn) | inactive: 104% |
| Cc1cc(C)c(S(=O)(=O)NCCc2cc3c(C)ccc(C)c3[nH]c2=O)c(C)c1 | inactive: 77% |
| Cc1ccc(NC(=O)C2Cc3ccccc3N2C(=O)c2ccccc2)cc1Cl (stereo not drawn) | inactive: 74% |
| O=C(Nc1ccc(S(=O)(=O)N2CCC(c3nc4ccccc4s3)CC2)cc1)c1ccc(F)cc1 | inactive: 89% |
| Nc1no[n+]([O-])c1C(=O)NCCO | inactive: 101% |
| Cc1ccc(C)c(-n2nnc(-c3nc(-c4ccc(Cl)cc4)no3)c2N)c1 | inactive: 96% |
| CCCC(=O)NCCc1nc2ccccc2n1Cc1c(F)cccc1Cl | inactive: 66% |
| COc1ccc(OC)c(NC(=O)CSC2=Nc3ccccc3C3=NC(CC(=O)NCc4ccco4)C(=O)N23)c1 (stereo not drawn) | inactive: 95% |
| CC1C(=O)NN=C1C(=O)N/N=C\c1cccnc1 (stereo not drawn) | inactive: 111% |

| Structure (SMILES) | survival |
| --- | --- |
| COc1ccc(NC(=O)c2sc3nc(C)c(C(=O)Nc4ccc(C)cc4C)c(-c4ccc(Cl)cc4)c3c2N)cc1 | inactive: 71% |
| O=C(NCc1ccc2c(c1)CCN2C(=O)c1ccncc1)c1cccc(Cl)c1 | inactive: 83% |
| Cc1oc(-c2ccccc2F)nc1CS(=O)(=O)CC(=O)N1CCN(c2cccc(C(F)(F)F)c2)CC1 | inactive: 76% |
| N#Cc1ccc(C(=O)Nc2ccc(Cl)c(-c3nc4cc(Cl)ccc4o3)c2)c(F)c1 | inactive: 58% |
| Cc1ccc(C(=O)NCC(c2cccs2)S(=O)(=O)c2cccs2)cc1C (stereo not drawn) | inactive: 80% |
| Fc1ccc(CNCc2ccccc2)cc1 | inactive: 110% |
| CCOc1ccc(NC(=O)CN(C)S(=O)(=O)c2ccc3c(c2)c(=O)n(C)c(=O)n3C)cc1 | inactive: 82% |
| COc1cc(OC)cc(C(=O)Nc2cc(-c3nc4ccccc4s3)ccc2OC)c1 | inactive: 67% |
| Cc1ccc(NC(=O)c2cccc(NC(=O)N3CCSc4ncccc43)c2)cc1Cl | inactive: 63% |
| COc1ccc(N2CCN(C(=O)Cn3ncc4c3-c3cc(C)ccc3OC4)CC2)cc1 | inactive: 129% |
| COc1ccc(-c2nc3sc(CCNC(=O)C(=O)Nc4cc(C)cc(C)c4)c(C)n3n2)cc1 | inactive: 89% |
| CCN(C(=O)c1nn(-c2ccc(OC)c(Cl)c2)c(=O)c2c1c1ccccc1n2C)c1cc(OC)ccc1OC | inactive: 91% |
| O=C(NCC(c1ccc(Cl)cc1)N1CCCCC1)c1ccc(F)cc1 (stereo not drawn) | inactive: 85% |
| COc1ccc(C(=O)NCC(c2cccnc2)N2CCN(c3ccc(F)cc3)CC2)cc1 (stereo not drawn) | inactive: 84% |
| COc1cccc(-c2cc(C(F)(F)F)nc(-n3nc(C)c(Br)c3C)n2)c1 | inactive: 80% |
| CC(=O)Nc1nonc1NC(C)=O | inactive: 104% |
| Nc1nc(N)c(S(=O)(=O)c2ccccc2)c(Nc2ccc(Br)cc2)n1 | inactive: 65% |
| O=C(CSc1ccc2nc(-c3ccccc3)cn2n1)Nc1ccccc1C(F)(F)F | inactive: 73% |
| Cc1ccc(-n2c(SCc3ccccc3F)nc3[nH]ncc3c2=O)cc1C | inactive: 80% |
| COc1ccccc1CNC(=O)c1cccn1-c1nnc(N2CCCC2)s1 | inactive: 81% |
| Cc1cccc(NC(=O)Cn2nc(-c3ccc(Cl)cc3)c3ccccc3c2=O)c1 | inactive: 133% |
| CCC(c1ccc(F)cc1)n1cc(C(=O)NCCc2ccco2)nn1 (stereo not drawn) | inactive: 103% |

| Structure (SMILES) | survival |
| --- | --- |
| CCOc1cccc2cc(-c3nc4sc(C(=O)Nc5ccc(C)cc5)c(C)c4c(=O)[nH]3)c(=O)oc12 | inactive: 90% |
| O=S(=O)(c1cccc(S(=O)(=O)N2CCOCC2)c1)N1CCCCCC1 | inactive: 98% |
| O=C(Nc1cccc(-c2nc3ncccc3o2)c1)c1ccc(-c2cccc(Cl)c2Cl)o1 | inactive: 79% |
| Cc1cccc(NC(=O)C(=O)c2cc(C)n(-c3ccccc3)c2C)c1C | inactive: 79% |
| Cc1cc(O)c(C(c2cccc(F)c2)N2CCC(C)CC2)c(=O)n1Cc1ccco1 (stereo not drawn) | inactive: 85% |
| O=C(Cn1c(=O)n(Cc2cccs2)c(=O)c2cccnc21)Nc1ccccc1F | inactive: 75% |
| O=C(NCCc1ccc(Cl)cc1)c1cccn1-c1nnc(N2CCCCC2)s1 | inactive: 88% |
| COc1ccc(N2CCN(C(=O)CSCc3nc(-c4ccccc4Cl)oc3C)CC2)cc1 | inactive: 64% |
| CCc1nc(-c2cc(S(=O)(=O)N3CCN(c4ccc(F)cc4)CC3)ccc2OC)no1 | inactive: 85% |
| CN(C1CCCCC1)S(=O)(=O)c1ccc(C(=O)Nc2sc3c(c2C(N)=O)CC(C)(C)NC3(C)C)cc1 | inactive: 77% |
| CC(=O)c1cc(-c2ccccc2)n(CC(=O)NC2CCCCCC2)c1C | inactive: 132% |
| O=C(Nc1cccc(C(F)(F)F)c1)c1noc2c1CCc1ccccc1-2 | inactive: 83% |
| Cc1cccc(NC(=O)CSc2nc3c(c(=O)[nH]2)CN(Cc2ccc4c(c2)OCO4)CC3)c1C | inactive: 88% |
| CCc1ccc(-n2c(=O)c3cccnc3n2CC(=O)NCc2ccc(F)cc2)cc1 | inactive: 67% |
| O=c1c2c3c(sc2nc2n1CCCCC2)C(O)CCC3 (stereo not drawn) | inactive: 101% |
| CNC(=O)c1ccc(Nc2nnc(-c3ccc(C)c(S(=O)(=O)NC(C)(C)C)c3)c3ccccc23)cc1 | inactive: 97% |
| Cn1c(=O)c(=O)n(C)c2cc(S(=O)(=O)N3CCN(c4ccccc4F)CC3)ccc21 | inactive: 84% |
| O=C(NCc1cccc(F)c1)c1ccc(CS(=O)c2ccccc2Cl)o1 (stereo not drawn) | inactive: 96% |
| COc1ccccc1NC(=O)CCN1CCC(C(N)=O)CC1 | inactive: 153% |
| CCOC(=O)N1CCc2c(sc3c2c(=O)n(Cc2ccccc2)c(=O)n3CC(=O)Nc2c(C)cccc2C)C1 | inactive: 121% |
| CCOCN(C(=O)Cn1c(C(C)O)nc2ccccc21)c1c(C)cccc1CC (stereo not drawn) | inactive: 117% |
| Cc1ccc(C(=O)Nc2ccc(-n3c(C)nc4ccccc4c3=O)cc2)cc1[N+](=O)[O-] | inactive: 121% |
